Reference: the supplement of paper PMC11417369
± gives the standard deviation of the averaged measurements. The list shows a part of the results.

system: PfAP2-LT AP2 domain (GST-tagged); experiment: gcPBM binding intensity (ln(normalized median fluorescence intensity)); higher = stronger DNA binding
Summary of the method: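 The highest Masliner-normalised natural-log median intensity across replicate spots of either probe orientation is reported as binding intensity. GST-tagged P. falciparum DNA-binding domains expressed in E. coli were applied for 1 h to an Agilent 4 × 180k array of primer-extended double-stranded 36-bp intergenic genomic probes plus negative controls, and bound protein was detected with Alexa488 anti-GST antibody and scanned at 488 nm.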

Sequence	gcPBM binding intensity (ln)
ATAATAAGAAAAAAAAAAAAAAAAAAAAAAAAAAAA [TGCATGCA_negctrl_site377]	8.18 ± 0.2
ATATTGAAATGTTAATAGAAATATATGGTTAAATTG [XGTACX_negctrl_site212]	8.51 ± 0.51
ATGTATATAAATAGGTGTACATATAAGGTGTTAAGC [XGTACX_site5465]	9.31 ± 0.52
ACCTCTCATATGTTATAAACAAAATGAAAATTTCAT [XGTACX_negctrl_site303]	8.63 ± 0.33
ATTTTATTTTATTAAGTGCAAAAAAAAAAAAAGAAA	8.29 ± 0.5
TGTACAATATAAGGAGCACACAAAAATGGATAAATA [CACACA_site8216]	9.18 ± 0.56
ATATGGCATAAAACATGTACATGTTCATAAATATAT [XGTACX_site1924]	9.02 ± 0.4
ATTATATCTATAATATGTACATATTATAATATATAT [XGTACX_site3211]	8.74 ± 0.38
AGAATTAAAATAATACGTACACACATGTATAATACA [XGTACX_site1878]	9.26 ± 0.42
AATTGTTAATGGTACGAACACACATATAAAGATGCA [CACACA_site2043]	9.06 ± 0.37
TATATATAAGAAAAAAGTACAGATATATATATATTC [XGTACX_site4788]	8.87 ± 0.5
TATACAGACAGACACACACACATATATATATATATA [CACACA_site1734]	10.3 ± 0.13
TTTTAAGAAAAAAAATGTACACATGAAAATAGTGAA [XGTACX_site5898]	8.38 ± 0.53
TGTTATATTATAACTACACACGTATTATGTTATATC [CACACA_site839]	9.15 ± 0.35
AAATTTTCACTTCAAAAACACACGTATTTTTTTCCT [CACACA_site3813]	8.8 ± 0.47
GCTAGTTCATAAAATTGTACAAAAAAAAAAAAAAAA [XGTACX_site2223]	8.46 ± 0.42
AAAAAAAAAAAAAAAAGTACATGCCATATATTTTCA [XGTACX_site4580]	8.62 ± 0.33
TTTTTTATCTAATATTTTATAATTTTCATAAATTTG [GTGCAC_negctrl_site534]	8.34 ± 0.62
TAAATAATGTTAAACACACATACCGATATATAATTA [CACACA_site2711]	8.89 ± 0.42
AATAGAAACATTTTACATGTATATATAATTTTTTTT [XGTACX_negctrl_site190]	8.53 ± 0.46
AAATAATCTATACACAACGTATAAGAATAATATATG [TGCATGCA_negctrl_site422]	8.8 ± 0.49
ATTTTTTTACAAAAATGTACACATGAAATATGTAAT [XGTACX_site1372]	8.69 ± 0.49
TAAAAGTATATATATACACACATAAATATATCTGTA [CACACA_site4537]	9.16 ± 0.3
TGACAACATAGAGGGGCACACACATATATACATAAA [CACACA_site8550]	9.39 ± 0.56
